# Test results reported in PubChem BioAssay AID624417 (National Center for Advancing Translational Sciences (NCATS), 2012).
# Out of some 410,000 compounds screened, about 6,400 (1.6%) were called active. Inconclusive means that the source gave no clear call. Such entries were picked first, then a sample of the others. Calls follow the shape of the dose curve; as a rule, active = well fitted inhibition curve with a large enough effect; inconclusive = small, poorly fitted or top-dose-only effect; inactive = no such curve, though single readings can be large or run the other way. Potencies of inconclusive entries are left out as doubtful fits.
# Molecular target: Glucagon-like peptide 1 receptor (Homo sapiens) (UniProt P43220)
# Test: qHTS of GLP-1 Receptor Inverse Agonists (Inhibition Mode); also: nearly all actives have a fitted effect of over 55% in size
# Settings: HEK293 GLP-1R CRE-luciferase, luminescence, 24 h, GLP-1R form is constitutively active; series mostly up to 38.3 µM
# Method in brief: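 GLP-1R inverse agonism mode: basal reporter luminescence in engineered HEK293 cells measured after one day of compound exposure at 37 deg C, with a 12 min room-temperature detection step.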
# Potency is read from the fitted curve at half-maximal effect; tags tell the direction and shape of the fitted curve.
# UniProt P43220, sequence (P43220 whole entry, looked up): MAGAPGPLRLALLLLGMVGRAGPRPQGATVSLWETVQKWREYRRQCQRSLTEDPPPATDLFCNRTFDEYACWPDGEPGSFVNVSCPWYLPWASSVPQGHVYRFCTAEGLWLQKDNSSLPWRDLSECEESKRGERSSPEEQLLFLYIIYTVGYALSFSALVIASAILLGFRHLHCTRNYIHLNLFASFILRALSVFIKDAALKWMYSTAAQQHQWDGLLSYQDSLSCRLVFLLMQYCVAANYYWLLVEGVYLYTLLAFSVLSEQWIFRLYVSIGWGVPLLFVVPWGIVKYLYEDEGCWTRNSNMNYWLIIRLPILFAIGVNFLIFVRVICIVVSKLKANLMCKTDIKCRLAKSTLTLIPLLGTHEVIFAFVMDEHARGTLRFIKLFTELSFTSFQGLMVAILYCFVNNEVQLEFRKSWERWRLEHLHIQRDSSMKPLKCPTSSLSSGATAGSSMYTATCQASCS
row,Structure (SMILES),Potency
1,O=C(NCc1cccc(Cl)c1)c1cccc(S(=O)(=O)N2CCCC2)c1,"inconclusive [inhibitor, full curve]"
2,CCOc1ccc(C2c3c(-c4cc(C)ccc4O)n[nH]c3C(=O)N2Cc2cccnc2)cc1OCC (configuration not stated),inactive
3,O=C(c1cnc(Cl)c(Cl)c1)N1CCC(Cc2ccccc2)CC1,"inconclusive [inhibitor, partial curve, poor fit]"
4,Cc1cc(C)c2c(c1)c1nnc(SCCN3CCCCC3)nc1n2C,"inconclusive [inhibitor, single point]"
5,COc1ccc([C@H]2CC(=O)C=C(c3cc(Br)ccc3OC)C2)cc1,"inconclusive [inhibitor, partial curve, poor fit]"
6,CC[C@]12c3[nH]c4cc(-c5ccco5)ccc4c3CCN1C(=O)[C@@H](CC(=O)NC/C=C(\C)CCC=C(C)C)C[C@@H]2C(=O)N1CCN(C(=O)c2ccco2)CC1,"inconclusive [inhibitor, single point]"
7,CCCCc1ccc(NC(=S)NCc2ccc(OC)cc2)cc1,"inconclusive [inhibitor, single point]"
8,O=C(c1ccc(N2CCOCC2)cc1)N1CCCC(Nc2ccccc2)C1 (configuration not stated),"inconclusive [inhibitor, full curve, poor fit]"
9,CC1=CC(=O)C(C(C)C)=C/C1=N/OS(=O)(=O)c1ccccc1,"inconclusive [inhibitor, single point]"
10,CC(=O)N(C)c1ccc(NC(=O)C(Sc2ccccc2)c2ccccc2)cc1 (configuration not stated),"inconclusive [inhibitor, single point]"
11,Cc1cccc(-c2noc(-c3cc(C(C)C)[nH]n3)n2)c1,"inconclusive [inhibitor, single point]"
12,Cc1cccc2cc(CN(CC3CCCO3)C(=O)c3ccco3)c(=O)[nH]c12 (configuration not stated),inactive
13,CC(=O)N1c2ccccc2C(=O)C1N1CCN(c2cccc(Cl)c2)CC1 (configuration not stated),inactive
14,COc1nc(NCCN2CCOCC2)nc(Nc2ccc([N+](=O)[O-])cc2)n1,inactive
15,O=C(Cc1csc2ccccc12)NCC1CC1,inactive
16,CCNC(=S)N(Cc1cc2cccc(C)c2[nH]c1=O)C1CCCC1,"inconclusive [inhibitor, partial curve]"
17,CCC(C)Sc1cc(-c2nc3cc(C)ccn3c2NC2CCCCC2)ccc1OC (configuration not stated),"inconclusive [inhibitor, single point]"
18,Cc1c(Cl)cccc1NC(=S)N=Nc1c(O)n(CN2CCOCC2)c2ccccc12,"inconclusive [inhibitor, full curve, poor fit]"
19,O=C(NCc1ccccc1)NCC12CC3CC(CC(C3)C1)C2,"inconclusive [inhibitor, full curve]"
20,CC(CCc1ccccc1)NC(=O)C(=O)c1c[nH]c2ccccc12 (configuration not stated),"inconclusive [inhibitor, single point]"
21,Cc1cccc(OC(=O)CSc2nnc(-c3ccc4c(c3)OCO4)o2)c1C,inactive

row,Structure (SMILES),Potency
1,O=S(=O)(Nc1ccc2c3c(cccc13)CC2)c1ccccc1,"inconclusive [inhibitor, partial curve, poor fit]"
2,CC(C)(C)NCCOCCOc1ccccc1-c1ccccc1,"inconclusive [inhibitor, partial curve, poor fit]"
3,Cc1ccc(CCNS(=O)(=O)c2ccc3c(c2)C(C(C)C)C(=O)N3)cc1 (configuration not stated),"inconclusive [inhibitor, single point]"
4,O=C(CC12CC3CC(CC(C3)C1)C2)N/N=C/c1ccc([N+](=O)[O-])o1,"inconclusive [inhibitor, single point]"
5,CCCS(=O)(=O)Nc1ccc(Nc2c3ccccc3nc3ccccc23)c(OC)c1,"inconclusive [inhibitor, full curve]"
6,CC1CCCN(CC(O)CN2CCN(CC(O)CN3CCCC(C)C3)C(C)C2)C1 (configuration not stated),"inconclusive [inhibitor, single point]"
7,O=C(NC(=S)Nc1ccc(CN2CCOCC2)cc1)c1ccc2c(c1)OCCO2,inactive
8,O=C(CCOc1ccccc1)N1CCN(c2ccc(O)cc2)CC1,"inconclusive [inhibitor, partial curve, poor fit]"
9,CC(C)COC(=O)N1CCCCC1c1cc(C(=O)Nc2ccccc2)no1 (configuration not stated),"inconclusive [inhibitor, partial curve, poor fit]"
10,Cc1cccc(-n2ncc3c(NCc4ccco4)ncnc32)c1,"inconclusive [inhibitor, single point]"
11,COC1=C(OC)C(=O)C(Sc2ccc3ccccc3c2)=CC1=O,"inconclusive [inhibitor, single point]"
12,COc1cc(OC)c(C2CC(=O)Nc3ccc4ccccc4c32)cc1OC (configuration not stated),"inconclusive [inhibitor, single point]"
13,COc1ccccc1CNC(=O)C1(C)CCN1C(=O)Cc1ccc(-c2ccccc2)cc1 (configuration not stated),"inconclusive [inhibitor, single point]"
14,Cc1c(Cl)cccc1Nc1nc(N)nc(CN2CCCCCC2)n1,inactive
15,CCOC(=O)c1sc(Nc2nc3cc4c(cc3s2)OCO4)cc1C,"inconclusive [inhibitor, single point]"
16,Cc1ccc2c(c1)/C(=C/c1ccccc1F)C(=O)N2,"inconclusive [inhibitor, partial curve, poor fit]"
17,Cc1ccc(C2CC(=O)NC(SCC(=O)OCc3ccccc3)=C2C#N)o1 (configuration not stated),"inconclusive [inhibitor, partial curve]"
18,O=C(NCCc1ccccc1)c1ccc2c(c1)N(Cc1ccc(F)cc1)C(=O)CS2,"inconclusive [inhibitor, partial curve, poor fit]"
19,O=C(NCCC1=CCCCC1)c1ccc2c(c1)sc1nc(-c3ccc(F)cc3)cn12,inactive
20,Cc1cccn2cc(-c3ccc(S(=O)(=O)N4CCOCC4)cc3)nc12,inactive
21,CSc1ccc(CN(C)CC(=O)NCc2ccccc2)cc1,"inconclusive [inhibitor, partial curve, poor fit]"
